Data from paper PMC4336329 (PLoS ONE, 2015).
In all, about 310,000 compounds went through this assay and about 14,000 (4.5%) showed an effect of 50% or more. Effects have a minus sign here. The list shows a part of the results.

What follows are molecules tested against human ether-à-go-go-related gene (hERG) potassium channel (human, UniProt Q12809) (assay: primary screen, population patch clamp on CHO cells stably expressing hERG).
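Note: peak tail current of the secondary pulse compared with the same well before compound.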

human ether-à-go-go-related gene (hERG) potassium channel, sequence (Q12809 whole entry, looked up): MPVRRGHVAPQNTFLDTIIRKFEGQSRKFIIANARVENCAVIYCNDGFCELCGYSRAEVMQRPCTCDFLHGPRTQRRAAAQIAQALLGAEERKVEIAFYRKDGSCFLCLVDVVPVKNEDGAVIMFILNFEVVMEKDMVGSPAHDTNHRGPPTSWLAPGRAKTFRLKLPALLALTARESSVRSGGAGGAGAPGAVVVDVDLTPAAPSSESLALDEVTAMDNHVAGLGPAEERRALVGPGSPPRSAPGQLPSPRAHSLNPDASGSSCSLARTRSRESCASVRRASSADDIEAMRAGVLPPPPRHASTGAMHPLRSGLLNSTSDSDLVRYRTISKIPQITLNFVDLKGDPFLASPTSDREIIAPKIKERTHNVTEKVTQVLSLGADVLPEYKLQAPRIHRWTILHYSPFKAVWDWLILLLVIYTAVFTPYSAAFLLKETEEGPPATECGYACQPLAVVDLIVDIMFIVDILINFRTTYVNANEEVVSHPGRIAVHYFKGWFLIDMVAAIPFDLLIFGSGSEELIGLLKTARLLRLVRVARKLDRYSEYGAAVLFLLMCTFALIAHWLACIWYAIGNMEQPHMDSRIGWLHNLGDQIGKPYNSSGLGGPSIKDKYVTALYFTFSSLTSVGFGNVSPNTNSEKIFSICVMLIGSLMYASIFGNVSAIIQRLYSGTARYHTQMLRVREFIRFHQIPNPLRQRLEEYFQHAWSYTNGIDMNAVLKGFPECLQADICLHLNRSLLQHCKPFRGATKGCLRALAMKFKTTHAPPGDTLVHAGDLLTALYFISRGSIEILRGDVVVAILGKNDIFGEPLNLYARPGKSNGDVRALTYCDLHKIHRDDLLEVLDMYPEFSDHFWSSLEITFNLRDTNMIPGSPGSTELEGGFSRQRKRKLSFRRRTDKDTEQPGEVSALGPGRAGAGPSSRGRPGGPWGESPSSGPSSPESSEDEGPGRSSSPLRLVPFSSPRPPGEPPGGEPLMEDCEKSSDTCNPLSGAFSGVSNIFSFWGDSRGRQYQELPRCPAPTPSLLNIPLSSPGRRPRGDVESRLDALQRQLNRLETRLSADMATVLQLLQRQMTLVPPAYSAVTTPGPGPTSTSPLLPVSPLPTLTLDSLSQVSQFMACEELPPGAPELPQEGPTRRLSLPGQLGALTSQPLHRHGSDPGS

Point of comparison: `Cc1cc2c(N)cccc2nn1`, “hERG current change (%, negative = inhibition) at 10uM” value -0.488%. Against it:
- C1CCC(C(CC2CCCCN2)C2CCCCC2)CC1.O=C(O)/C=C\C(=O)O (stereo not drawn) — lower, -22.6%
- CCOC(=O)C1CCN(C(=O)c2ccc(OCC)c(OCC)c2)CC1 — lower, -79.4%
- CCNc1nc(NCC)n2c(SCC(=O)Nc3ccc(NC(C)=O)cc3)nnc2n1 — lower, -17.8%
- COc1ccc(C(=O)C2CCN(C(=S)Nc3ccc(F)cc3)CC2)cc1 — lower, -46.9%
- Cc1ccc(Sc2ccc(N)cn2)cc1 — higher, 10.4%
- CC(C)=CCc1c(O)cc2c(c1O)C(=O)CC(c1ccc(O)cc1)O2 (stereo not drawn) — higher, 1.34%
- O=C1C(c2ccncc2)=C(O)c2ccccc21 — higher, 1.47%
- CN(CC(=O)NCc1ccccc1Cl)S(=O)(=O)c1ccc2c(c1)n(C)c(=O)c(=O)n2C — higher, 10.1%
- COc1ccc(CN2CCNC(=O)C2CC(=O)N(C)Cc2nccn2C)cc1OC (stereo not drawn) — higher, 17.3%
- Nc1nnc(COc2cccc(C(F)(F)F)c2)s1 — higher, 0.784%
- Cc1ccc(CNC(=O)COC(=O)Cn2nc(C)c([N+](=O)[O-])c2C)cc1 — lower, -16.3%
- O=C(CCS(=O)(=O)c1ccc(Br)cc1)Nc1ccccc1Cl — higher, 21%
- O=C(Nc1cccnc1)c1cccc([N+](=O)[O-])c1 — higher, 4.96%
- CCn1c(C)c(C)c2cc(C(=O)NCCCN3CCCCC3)ccc21 — lower, -12.8%
- Cn1/c(=N/N=C/c2ccc(N3CCOCC3)cc2)sc2ccccc21 — higher, 2.81%
- CC(C)(C)NC[C@@H](O)COc1cccc2c1CCCC2=O.Cl — lower, -3.34%
- Cl.O=C(CN1CCOCC1)NCC12CC3CC(CC(C3)C1)C2 — higher, 3.71%
- CCOc1ccc(-n2c(SCC(N)=O)nc3c(c2=O)SCC3)cc1 — higher, 12%
- CCOC(=O)C1CCN(Cc2cc(C(C)C)c(O)c(C(C)C)c2)CC1 — lower, -41.3%
- O=[N+]([O-])/C=C1\C=CC=CN1Cc1ccc(Cl)cc1 — lower, -12.8%
- CCOc1ccc(C(O)(c2ccccc2OC)C(CN2CCCC2)c2ccccc2)cc1.Cl (stereo not drawn) — lower, -18.3%
- Cc1cccc(-n2ncc3c(NCCCn4ccnc4)ncnc32)c1 — lower, -16.5%
- Cc1ccc(C(=O)Nc2ccc3c(c2)CCC3)o1 — lower, -17.1%
- S=c1[nH]nc(-c2ccccc2)n1Cc1ccccc1 — higher, 5.13%
- COc1ccc(N=C2SC(CC(=O)Nc3ccccc3)C(=O)N2CCN2CCOCC2)cc1 (stereo not drawn) — lower, -23.1%
- Nc1ccc(Cl)cc1/C(=N/O)c1ccccc1 — higher, 6.2%
- CCOc1ccc(NC(=O)CN2CCCC2c2cccs2)cc1S(=O)(=O)N1CCCCC1 (stereo not drawn) — lower, -11.8%
- CCOC(=O)c1sc(S(C)=O)c2c1CCc1conc1-2 (stereo not drawn) — lower, -8.56%
- COc1ccc(Br)cc1/C=N/n1c(COc2ccccc2)n[nH]c1=S — higher, 23.7%
- COc1ccc(Cl)cc1NS(=O)(=O)c1cccc(C(=O)NCC2CCCO2)c1 (stereo not drawn) — lower, -5.08%
- CCOC(=O)N1CCC(N2CCN(Cc3ccc(C)o3)C(CCO)C2)CC1 (stereo not drawn) — lower, -4.54%
- CNC(=O)CC1C(=O)N(c2ccc(OC)cc2)C(=S)N1NC(=O)c1cccc(F)c1 (stereo not drawn) — higher, 6.04%
- O=C(CCS(=O)(=O)c1ccc(Br)cc1)NCc1ccc(F)cc1 — higher, 9.4%
- Cc1nc(C)c(CCNC(=O)c2ccccc2)s1 — higher, 30.2%
- CCOC(=O)c1sc(/N=C/N(C)C)nc1C — higher, 7.67%
- CCOC(=O)c1sc(NC(=O)/C=C/c2cnn(C)c2C)c(C(=O)OCC)c1C — higher, 9.79%
- CCCc1cc(=O)[nH]c(SCc2ccc(F)cc2)n1 — higher, 2.84%
- CCOc1ccc(C(=O)OCn2nnc3ccccc3c2=O)cc1OC — higher, 3.01%
- CC(=O)C1=C(C)NC(SCC(=O)c2ccc(Cl)cc2)=C(C#N)C1CC(C)C (stereo not drawn) — higher, 0.245%
- Nc1nc(SCC(=O)c2cccs2)n[nH]1 — higher, 11.6%
- CC(C)(C)c1ccc(OC(=O)N2CCOCC2)cc1 — higher, 14%
- Cc1c(NC(=O)/C(C#N)=C/C2CC=CCC2)c(=O)n(-c2ccccc2)n1C (stereo not drawn) — higher, 20.1%
- CCCCNc1ccc(S(=O)(=O)c2cccc([N+](=O)[O-])c2)cc1[N+](=O)[O-] — lower, -22.2%
- COC(=O)Cn1c2ccccc2c2nc(C)sc21 — lower, -1.56%
- Cc1ccc(NC(=O)CCc2c(C)nn(-c3ccc(N4CCCCC4)nn3)c2C)cc1F — lower, -6.63%
- CCC(C)(C)NC(=O)C(c1cccn1C)N(C(=O)Cn1nnc2ccccc21)c1ccc(OC)cc1OC (stereo not drawn) — lower, -11.7%
- COc1cc2nc(Cl)nc(N3CCN(C)CC3)c2cc1OC — lower, -13.2%
- C#CCOCCOCCOCCNc1nc(N2CCN(C(=O)CCCCCCCCCCNC(=O)Cn3cc(C[C@@H](C)O)nn3)CC2)nc(N2CCN(C(=O)CCCCCCCCCCNC(=O)[C@@H](CCSC)n3cc(CCO)nn3)CC2)n1 — higher, 10.1%
- Cc1ccc(S(=O)(=O)N2CCCC2)cc1S(=O)(=O)N1CCCC1 — lower, -11.1%
- CC1CN(C(=S)SCC(=O)c2ccc(Cl)cc2)CC(C)O1 (stereo not drawn) — lower, -4.66%
- Cc1ccc(S(=O)(=O)NCC(=O)Nc2cccc([N+](=O)[O-])c2)cc1 — lower, -14.8%
- Cc1ccc(N2CC(C(=O)Nc3c4c(nn3C(C)(C)C)CS(=O)(=O)C4)CC2=O)cc1 (stereo not drawn) — higher, 19.3%
- COCC(C)NC(=O)c1ccc(N(C)C)cc1 (stereo not drawn) — higher, 5.77%
- CSc1ccccc1NC(=O)CN(C)C(=O)/C=C/c1ccccc1 — lower, -8.37%
- C/C(CC(=O)Nc1ccccc1C(F)(F)F)=N\NC(=O)c1cnccn1 — higher, 4.32%
- COCCCNC(=S)N/N=C/c1ccc(OC)cc1 — higher, 11.3%
